Source: publication PMC4336329 (PLoS ONE, 2015)
Out of some 310,000 compounds screened, about 14,000 (4.5%) showed an effect of 50% or more. The effect is printed as a negative number. The list shows a part of the results.
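Also: peak tail current of the secondary pulse compared with the same well before compound.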

What follows are molecules tested against human ether-à-go-go-related gene (hERG) potassium channel (human, UniProt Q12809) (assay: primary screen, population patch clamp on CHO cells stably expressing hERG).
Sequence of human ether-à-go-go-related gene (hERG) potassium channel (Q12809 whole entry, looked up): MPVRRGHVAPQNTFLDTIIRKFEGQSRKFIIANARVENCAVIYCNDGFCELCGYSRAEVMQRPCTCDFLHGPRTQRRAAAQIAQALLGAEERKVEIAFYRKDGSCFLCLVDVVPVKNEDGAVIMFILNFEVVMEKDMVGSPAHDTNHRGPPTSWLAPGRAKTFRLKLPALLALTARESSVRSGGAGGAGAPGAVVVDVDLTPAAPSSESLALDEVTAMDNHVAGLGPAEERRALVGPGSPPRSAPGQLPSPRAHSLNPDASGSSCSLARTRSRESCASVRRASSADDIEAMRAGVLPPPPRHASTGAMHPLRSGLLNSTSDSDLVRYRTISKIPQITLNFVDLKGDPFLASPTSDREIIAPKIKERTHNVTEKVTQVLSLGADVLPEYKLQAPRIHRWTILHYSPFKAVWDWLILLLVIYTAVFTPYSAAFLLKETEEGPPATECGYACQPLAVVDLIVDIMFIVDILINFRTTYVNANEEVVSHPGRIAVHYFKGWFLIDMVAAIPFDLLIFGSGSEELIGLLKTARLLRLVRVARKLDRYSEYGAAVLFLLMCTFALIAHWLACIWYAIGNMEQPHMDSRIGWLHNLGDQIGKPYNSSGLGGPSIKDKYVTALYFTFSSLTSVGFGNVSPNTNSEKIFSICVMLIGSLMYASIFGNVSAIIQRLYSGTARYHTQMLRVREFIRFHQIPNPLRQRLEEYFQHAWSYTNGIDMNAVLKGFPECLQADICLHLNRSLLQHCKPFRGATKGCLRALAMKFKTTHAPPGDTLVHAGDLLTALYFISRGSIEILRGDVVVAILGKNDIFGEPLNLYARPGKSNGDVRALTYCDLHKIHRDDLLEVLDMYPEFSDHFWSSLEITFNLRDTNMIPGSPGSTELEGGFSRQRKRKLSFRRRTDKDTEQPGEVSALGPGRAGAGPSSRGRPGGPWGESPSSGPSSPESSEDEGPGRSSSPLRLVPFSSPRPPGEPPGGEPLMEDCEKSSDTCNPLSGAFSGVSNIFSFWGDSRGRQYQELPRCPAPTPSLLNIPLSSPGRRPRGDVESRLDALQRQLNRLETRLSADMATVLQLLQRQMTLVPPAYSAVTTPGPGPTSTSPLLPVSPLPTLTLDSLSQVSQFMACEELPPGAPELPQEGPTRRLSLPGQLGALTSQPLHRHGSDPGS
In the case of CCC1C(=O)C(CC)C(c2ccccc2)NC1c1ccccc1 (stereo not drawn), the “hERG current change (%, negative = inhibition) at 10uM” value is reported as 11.9%. With CC(=O)NNc1ncnc2c1cnn2-c1ccc(C)cc1 the “hERG current change (%, negative = inhibition) at 10uM” value was 7.67%. With CCc1ccccc1OCc1nnc(N)s1 the “hERG current change (%, negative = inhibition) at 10uM” value was 2.48%. CC(C)Oc1ccc(-c2nc(NCC3CCCO3)c3ccccc3n2)cc1 (stereo not drawn) was tested, and the “hERG current change (%, negative = inhibition) at 10uM” value was -27.4%. With CCOC(=O)Cn1c(=O)c2c(nc(Br)n2CC(=O)OCC)n(C)c1=O the “hERG current change (%, negative = inhibition) at 10uM” value was -4.97%. For O=C(c1cccc(S(=O)(=O)Nc2ccccc2Cl)c1)N1CCN(c2ccccc2O)CC1, the “hERG current change (%, negative = inhibition) at 10uM” value was -15%. In the case of Cc1ccc(NC(=O)C2CCCN(C(=O)c3ccc(Cl)cc3)C2)cc1 (stereo not drawn), the “hERG current change (%, negative = inhibition) at 10uM” value is reported as -33.4%. In the case of CC(=O)Nc1ccc(NC(=O)c2ccccc2S(=O)(=O)c2ccc([N+](=O)[O-])cc2)cc1, the “hERG current change (%, negative = inhibition) at 10uM” value is reported as 6.38%. CCN(CC)c1ncnc2sc3c(c12)CCC3.Cl was tested, and the “hERG current change (%, negative = inhibition) at 10uM” value was -20.4%. For CC(C)c1ccc(N)c(S(=O)(=O)O)c1, the “hERG current change (%, negative = inhibition) at 10uM” value was 8.28%. For O=C(N/N=C1\CC2CC=CC12)c1ccccc1Cl (stereo not drawn), the “hERG current change (%, negative = inhibition) at 10uM” value was 12.2%. In the case of Nc1c(C(=O)NC2CC2)c2nc3ccccc3nc2n1-c1ccc2c(c1)OCO2, the “hERG current change (%, negative = inhibition) at 10uM” value is reported as 4.49%. With CCCCNS(=O)(=O)c1ccc2nc(SCC(=O)c3ccccc3OC)[nH]c2c1 the “hERG current change (%, negative = inhibition) at 10uM” value was 6.03%. COc1ccccc1CN1C(=O)C(=O)N(Cc2cccc(C)c2)C1=O was tested, and the “hERG current change (%, negative = inhibition) at 10uM” value was 7.63%. In the case of Cc1nn(Cc2c(F)c(F)c(F)c(F)c2F)c(C)c1NC(=O)c1ccc(COc2ccccc2Cl)o1, the “hERG current change (%, negative = inhibition) at 10uM” value is reported as -19.4%. Fc1cccc(F)c1-c1nc(-c2ccncc2)no1 was tested, and the “hERG current change (%, negative = inhibition) at 10uM” value was 13.8%. For CCCc1cc(C(=O)NNC(=S)NCC)c2ccccc2n1, the “hERG current change (%, negative = inhibition) at 10uM” value was 18.1%. In the case of CN(Cc1ccccc1)c1ccc(S(=O)(=O)N2CCC(C(=O)O)CC2)cc1[N+](=O)[O-], the “hERG current change (%, negative = inhibition) at 10uM” value is reported as 22.1%. Cc1cccc(N(C)S(=O)(=O)c2csc(C(N)=O)c2)c1 was tested, and the “hERG current change (%, negative = inhibition) at 10uM” value was 8.51%. With CCN(CC)c1ccc(CNc2nnnn2C)cc1 the “hERG current change (%, negative = inhibition) at 10uM” value was 19.3%. In the case of COc1cc(C2CC(C(F)(F)F)n3ncc(C(=O)O)c3N2)cc(OC)c1OC (stereo not drawn), the “hERG current change (%, negative = inhibition) at 10uM” value is reported as 2.77%. Cn1ccnc1SCC(=O)Nc1cc(C(F)(F)F)ccc1N1CCOCC1 was tested, and the “hERG current change (%, negative = inhibition) at 10uM” value was -18.3%. NS(=O)(=O)c1ccc(OC(=O)CNC(=O)OCc2ccccc2)cc1 was tested, and the “hERG current change (%, negative = inhibition) at 10uM” value was 11%. In the case of CC(=O)Nc1ccc(S(=O)(=O)NC2(C(F)(F)F)NC(=O)N(CC(C)C)C2=O)cc1 (stereo not drawn), the “hERG current change (%, negative = inhibition) at 10uM” value is reported as 15%. For COc1ccc(C(=O)O)cc1NC(=S)NC(=O)/C=C/c1ccc(C(C)C)cc1, the “hERG current change (%, negative = inhibition) at 10uM” value was 11.5%. In the case of O=C1CCCN1CCCNS(=O)(=O)c1ccc(Br)cc1, the “hERG current change (%, negative = inhibition) at 10uM” value is reported as 15.8%. In the case of O=[N+]([O-])c1cccc(/C=N/NS(=O)(=O)c2ccccc2)c1, the “hERG current change (%, negative = inhibition) at 10uM” value is reported as 21.7%. Cc1ccc(C(=O)NCCSC2CCCCC2)cc1S(=O)(=O)Nc1ccccc1 was tested, and the “hERG current change (%, negative = inhibition) at 10uM” value was -2.9%. With Cc1cccc(CSc2nnnn2-c2ccccc2)c1 the “hERG current change (%, negative = inhibition) at 10uM” value was -6.7%. With CCN(CC)S(=O)(=O)c1ccc(NCC2COc3ccccc3O2)c([N+](=O)[O-])c1 (stereo not drawn) the “hERG current change (%, negative = inhibition) at 10uM” value was -4.6%. For Cl.O=C(NCCCN1CCOCC1)c1cc2c(s1)CCCC2, the “hERG current change (%, negative = inhibition) at 10uM” value was -25%. Cc1ccccc1N1CC(C(=O)N2CC(C)OC(C)C2)CC1=O (stereo not drawn) was tested, and the “hERG current change (%, negative = inhibition) at 10uM” value was 11.2%. With Cc1cccc(Nc2nc(-c3ccncc3)cs2)c1 the “hERG current change (%, negative = inhibition) at 10uM” value was -1.2%. In the case of Cc1ccc(NC(=O)CN2C(=O)NC3(CCCCC3C)C2=O)cc1S(=O)(=O)N1CCCCC1 (stereo not drawn), the “hERG current change (%, negative = inhibition) at 10uM” value is reported as -15.4%. CC(=O)c1ccc(N2CCN(C(=O)C3CCN(C(=O)Nc4ccccc4)CC3)CC2)cc1 was tested, and the “hERG current change (%, negative = inhibition) at 10uM” value was -14%. Cc1sc2nc3c(SC(C)C(=O)O)cc(C(=O)c4ccccc4O)cn3c(=O)c2c1C (stereo not drawn) was tested, and the “hERG current change (%, negative = inhibition) at 10uM” value was 7.32%. With COc1ccc(C(=O)NC2=NCCS2)cc1 the “hERG current change (%, negative = inhibition) at 10uM” value was 16%. COc1ccc(OC)c(-c2cc(-c3cccnc3)nc(N)c2C#N)c1 was tested, and the “hERG current change (%, negative = inhibition) at 10uM” value was 7.56%. COc1ccc(-c2nnc(SC)nc2-c2ccc(OC)c([N+](=O)[O-])c2)cc1[N+](=O)[O-] was tested, and the “hERG current change (%, negative = inhibition) at 10uM” value was 5.51%. With Cc1cccn2c(=O)c3cc(C(=O)NCCC4=CCCCC4)n(C)c3nc12 the “hERG current change (%, negative = inhibition) at 10uM” value was 10.6%. In the case of Cc1sc2nc(CSc3nnc(Cc4cccs4)n3C3CCCCC3)[nH]c(=O)c2c1C, the “hERG current change (%, negative = inhibition) at 10uM” value is reported as 3.46%. In the case of CC(C)CCn1c(SCCc2ccccc2)nc2c1c(=O)[nH]c(=O)n2C, the “hERG current change (%, negative = inhibition) at 10uM” value is reported as 16.1%. CCc1ccc(N2C(=O)CN(Cc3ccc(OC)c(OC)c3)C2=S)cc1 was tested, and the “hERG current change (%, negative = inhibition) at 10uM” value was -3.14%. In the case of CCc1ccc(NC(=O)NCCN2CCCCC2)cc1, the “hERG current change (%, negative = inhibition) at 10uM” value is reported as -49.3%. With CCS(=O)(=O)N1CCN(c2ccc([N+](=O)[O-])c(NC(C)c3ccccc3)c2)CC1 (stereo not drawn) the “hERG current change (%, negative = inhibition) at 10uM” value was -4.64%. CC(=O)Nc1nc2ccc(S(=O)(=O)N3CCCC3)cc2s1 was tested, and the “hERG current change (%, negative = inhibition) at 10uM” value was -2.85%. Cc1cc(/C=N/Nc2nc(N)ncc2[N+](=O)[O-])c(C)n1-c1ccccc1F was tested, and the “hERG current change (%, negative = inhibition) at 10uM” value was 20.2%. With COc1cc(OC)c(S(=O)(=O)Nc2ccc(C)cn2)cc1NC(C)=O the “hERG current change (%, negative = inhibition) at 10uM” value was -8.05%. In the case of O=S(=O)(c1ccc(F)cc1)N1CCN(c2nc(-c3ccc(F)cc3)cs2)CC1, the “hERG current change (%, negative = inhibition) at 10uM” value is reported as -8.44%. COc1ccc(C)cc1NC(=O)Nn1cnnc1 was tested, and the “hERG current change (%, negative = inhibition) at 10uM” value was -4.55%. In the case of CCOC(=O)c1[nH]nc2c1C(=O)N(Cc1ccccc1)C2=O, the “hERG current change (%, negative = inhibition) at 10uM” value is reported as 6.13%. With CCOC(=O)C1=C(N)Oc2ccccc2C12C(=O)N(CC(=O)OC)C(CC(=O)OC)=C2C(=O)OC (stereo not drawn) the “hERG current change (%, negative = inhibition) at 10uM” value was 7.24%. For CC1(c2cnc(Nc3ccccc3)s2)CCC(=O)O1 (stereo not drawn), the “hERG current change (%, negative = inhibition) at 10uM” value was 1.59%. Cc1ccc(-c2nnc(-c3ccc4c(c3)OCO4)o2)cc1 was tested, and the “hERG current change (%, negative = inhibition) at 10uM” value was -11%. CCc1ccc(NC(=O)C(=O)c2ccccc2NC(C)=O)cc1 was tested, and the “hERG current change (%, negative = inhibition) at 10uM” value was -28.9%. With CCC1(C)Cc2c(C#N)c(N)n(N)c(=S)c2CO1 (stereo not drawn) the “hERG current change (%, negative = inhibition) at 10uM” value was 3.64%. O=C1COc2ccc(C(=O)COC(=O)CCSc3ccc(Cl)cc3)cc2N1 was tested, and the “hERG current change (%, negative = inhibition) at 10uM” value was 22.4%.
